# In PubChem BioAssay AID624417 (National Center for Advancing Translational Sciences (NCATS), 2012):
# Hit rate of the full screen: of about 410,000 compounds, about 6,400 (1.6%) were called active. The shares of active, inactive and inconclusive entries below differ from those in the screen. The call rests on the fitted dose curve; in most records, active means well fitted inhibition curve with a large enough effect; inconclusive means small, poorly fitted or top-dose-only effect; inactive means no such curve, though single readings can be large or run the other way. Potencies of inconclusive entries are left out as doubtful fits.
# Molecular target: Glucagon-like peptide 1 receptor (Homo sapiens) (UniProt P43220)
# UniProt P43220, sequence (P43220 whole entry, looked up): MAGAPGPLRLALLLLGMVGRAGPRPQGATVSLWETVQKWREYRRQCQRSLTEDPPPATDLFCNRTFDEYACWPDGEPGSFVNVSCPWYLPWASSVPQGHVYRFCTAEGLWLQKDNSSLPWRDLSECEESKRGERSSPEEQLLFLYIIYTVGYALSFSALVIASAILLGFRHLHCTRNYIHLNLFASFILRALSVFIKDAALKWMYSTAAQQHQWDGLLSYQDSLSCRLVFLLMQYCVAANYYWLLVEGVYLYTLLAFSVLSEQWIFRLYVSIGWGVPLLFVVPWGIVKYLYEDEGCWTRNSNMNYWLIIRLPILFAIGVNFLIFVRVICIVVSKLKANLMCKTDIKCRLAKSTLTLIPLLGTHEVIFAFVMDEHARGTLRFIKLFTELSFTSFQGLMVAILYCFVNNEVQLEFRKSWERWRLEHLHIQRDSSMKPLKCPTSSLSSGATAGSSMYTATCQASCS
# Assay: qHTS of GLP-1 Receptor Inverse Agonists (Inhibition Mode); further: nearly all actives have a fitted effect of over 55% in size
# Conditions: HEK293 GLP-1R CRE-luciferase, luminescence, 24 h, GLP-1R form is constitutively active; series mostly up to 38.3 µM
# Procedure, shortened: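 Constitutively active GLP-1R drives a cAMP-responsive luciferase in stably transfected HEK293 cells; test compounds are added after overnight (12 h) attachment and left 24 hr, and signal loss in luminescence marks inhibition.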
# Potency means the concentration at half of the fitted maximal effect; tags describe the fitted curve by direction and shape.
row,SMILES,Potency
1,O=C(c1ccc(NS(=O)(=O)c2cccs2)cc1)N1CCN(c2ccccc2Cl)CC1,"inconclusive [inhibitor, partial curve, poor fit]"
2,COc1ccccc1CCC(=O)OCC(=O)N1CCN(S(=O)(=O)c2ccc(C)cc2C)CC1,"inconclusive [inhibitor, single point]"
3,Cc1ccc(S(=O)(=O)N2CCN(S(=O)(=O)c3ccccc3)C2)cc1,inactive
4,FC(F)(F)Oc1ccc(Nc2nc(N3CCOCC3)nc(N3CCOCC3)n2)cc1,"inconclusive [inhibitor, full curve, poor fit]"
5,CCOc1ccc(NC(=O)Nc2cc(C(C)C)c(O)cc2C)cc1,"inconclusive [inhibitor, partial curve, poor fit]"
6,CN(C)C(CNC(=O)C1CCN(S(=O)(=O)c2cccc(C(F)(F)F)c2)CC1)c1ccccc1 (stereo not given),"inconclusive [inhibitor, partial curve, poor fit]"
7,CCC(CC)c1nnc(NC(=O)c2cc(C(=O)OC)cc([N+](=O)[O-])c2)s1,inactive
8,O=C(Nc1ccc(Cl)c([N+](=O)[O-])c1)C(Sc1ccccc1)c1ccccc1 (stereo not given),active: 8.91 µM
9,O=S(=O)(NCCOCC(F)(F)C(F)F)c1ccc2oc3ccccc3c2c1,"inconclusive [inhibitor, partial curve, poor fit]"
10,Cc1cccc(NC(=S)NCc2ccccc2)c1C,"inconclusive [inhibitor, partial curve, poor fit]"
11,COc1cnc(-c2ccccn2)nc1N(C)c1ccccc1,"inconclusive [inhibitor, partial curve, poor fit]"
12,O=P(c1ccccc1)(c1ccccc1)c1ccccc1C(Br)Br,"inconclusive [inhibitor, partial curve, poor fit]"
13,CCOC(=O)CC(NC(=O)c1ccc(C)cc1)c1ccc(C)cc1 (stereo not given),"inconclusive [inhibitor, partial curve]"
14,CCOC(=O)C1(C)CCCN(C(=O)c2ccc(OC)cc2)C1 (stereo not given),inactive
15,Cc1c(N=Cc2c(O)n(C)c(=O)c3ccccc23)c(=O)n(-c2ccccc2)n1C,inactive
16,CCOC(=O)C1=C(c2ccccc2)N=c2s/c(=C\c3cc(OC)c(OC)c(OC)c3)c(=O)n2C1c1cccs1 (stereo not given),"inconclusive [inhibitor, full curve, poor fit]"
17,Cc1ccc(-c2csc(NC3OC(=O)c4ccccc43)n2)cc1 (stereo not given),"inconclusive [inhibitor, single point]"
18,Cc1cc(C)c2oc(-c3cccc(NC(=O)c4cc5ccccc5o4)c3)nc2c1,inactive
19,CC(C)OC(=O)/C(=C\c1ccc2c(c1)c1ccccc1n2C)NC(=O)c1ccccc1,"inconclusive [inhibitor, single point]"
20,CC(C)(C)c1ccc(C(=O)N2CC(=O)Nc3ccc(F)cc3C2c2ccc(F)cc2)cc1 (stereo not given),"inconclusive [inhibitor, single point]"

row,SMILES,Potency
1,Cc1nn(-c2ccccc2)c(C)c1/C=N/NC(=O)CSc1nnc(SCc2ccc(Cl)cc2)s1,"inconclusive [inhibitor, single point]"
2,Cc1cccc(/C=C2/Sc3ccc(C(=O)NCCN4CCCC4)cc3NC2=O)c1,"inconclusive [inhibitor, partial curve, poor fit]"
3,O=C(c1ccccc1F)N1CCCC(c2ccccc2)C1 (stereo not given),"inconclusive [inhibitor, partial curve, poor fit]"
4,CCOC(=O)CN(C(=O)CSc1nnc(CNc2ccc(C)cc2C)n1CC)c1ccccc1,"inconclusive [inhibitor, partial curve]"
5,CC1=CCC2C(=O)N(c3cccc(C(=O)NCc4ccccc4)c3)C(=O)C2C1 (stereo not given),"inconclusive [inhibitor, single point]"
6,Cc1ccc(NC(=O)c2cc(CC(C)C)nc3ccccc23)cc1,"inconclusive [inhibitor, single point]"
7,Cc1nc(SCC(=O)c2ccccc2)[nH]c(=O)c1Oc1ccc(Cl)cc1,"inconclusive [inhibitor, single point]"
8,Fc1ccc(-c2nc3ccc(Cl)cn3c2Cc2cccc(Cl)c2)cc1,"inconclusive [inhibitor, single point]"
9,CC(=O)Nc1ccc(S(=O)(=O)Oc2ccc(/C=N/NC(=O)c3ccc(Cl)cc3)cc2)cc1,"inconclusive [inhibitor, partial curve]"
10,COC(=O)C1=C(C)N(Cc2ccccc2)C(=S)N[C@H]1c1ccc(Br)cc1,"inconclusive [inhibitor, partial curve, poor fit]"
11,CS(=O)(=O)N1CCc2cc(S(=O)(=O)Nc3ccc4oc5c(c4c3)CCCC5)ccc21,"inconclusive [inhibitor, single point]"
12,COc1ccc2c(c1)c(C(=O)N/N=C/c1ccc(Cl)cc1)c(C)n2C,"inconclusive [inhibitor, single point]"
13,Cc1cccc(NC(=O)CN2CCc3cc4c(cc3C2C)OCCCO4)c1 (stereo not given),"inconclusive [inhibitor, partial curve, poor fit]"
14,COc1cc(C2C3=C(COC3=O)Oc3cc4c(cc32)OCO4)ccc1OC(C)=O (stereo not given),"inconclusive [inhibitor, full curve, poor fit]"
15,CCN(CC)CCN(C(=O)c1ccccc1OC)c1nc2ccc(F)cc2s1,"inconclusive [inhibitor, partial curve, poor fit]"
16,COc1ccc(OC)c(/C=C/C(=O)OCC(=O)N2C(C)CCCC2C)c1 (stereo not given),"inconclusive [inhibitor, single point]"
17,Cc1ccc2nc(SCc3nc(-c4ccccc4C)no3)[nH]c2c1,"inconclusive [inhibitor, single point]"
18,O=C1S/C(=C\c2ccc(O)c([N+](=O)[O-])c2)C(=O)N1c1ccccc1Cl,"inconclusive [inhibitor, partial curve, poor fit]"
19,O=C(Nc1nc2cc3c(cc2s1)OCO3)C1=COCCO1,active: 2.24 µM
20,CSc1nc(N(C)NC(=O)c2ccccc2)c2ccccc2n1,"inconclusive [inhibitor, full curve]"

row,SMILES,Potency
1,COc1ccc(Nc2ccc(Nc3ccc(OC)cc3)nn2)cc1,"inconclusive [inhibitor, full curve, poor fit]"
2,O=[N+]([O-])c1cccc(/C=N/N2CCN(Cc3ccc(Cl)cc3)CC2)c1,"inconclusive [inhibitor, partial curve, poor fit]"
3,COc1ccc(C(=O)N/N=C/c2ccc(N3CCOCC3)s2)cc1OC,inactive
4,CC(C)OC(=O)C1Cc2ccccc2CN1S(=O)(=O)c1cccs1 (stereo not given),"inconclusive [inhibitor, single point]"
5,Cc1cccc(C)c1OC(=O)C(c1ccccc1)c1ccccc1,"inconclusive [inhibitor, single point]"
6,Cc1ccc(C)c(N2CCN(C(=O)c3cccn3-c3nnc(N4CCCCC4)s3)CC2)c1,"inconclusive [inhibitor, single point]"
7,NC(=O)CC1C(=O)N(c2ccc(Cl)cc2)C(=S)N1NC(=O)c1cccc(F)c1 (stereo not given),"inconclusive [inhibitor, single point]"
8,CC(C)(C)c1ccc(Oc2ccc(NC(=O)c3cccs3)cn2)cc1,"inconclusive [inhibitor, partial curve, poor fit]"
9,O=C(NCCc1ccc(F)cc1)NC12CC3CC(CC(C3)C1)C2,"inconclusive [inhibitor, single point]"
10,CCc1cc2c(=O)c(-c3cnn(-c4ccccc4)c3)coc2c(CN2CCOCC2)c1O,inactive
11,COc1ccc(C(=O)N2CCCC(c3ccccc3)C2)cc1 (stereo not given),"inconclusive [inhibitor, partial curve, poor fit]"
12,CN1C(=S)SC(N(O)C(=O)NC2CCCCC2)C1(C)C (stereo not given),"inconclusive [inhibitor, single point]"
13,CC1(C)CC2CC(C)(CN2C(=O)CCCN2C(=O)c3ccccc3C2=O)C1 (stereo not given),"inconclusive [inhibitor, single point]"
14,COc1cc(OC)cc(C(=O)N/N=C/c2ccc(OC)c(COc3ccc4ccccc4c3)c2)c1,"inconclusive [inhibitor, partial curve, poor fit]"
15,CCCn1nc(NC(=O)CC)c2cc3cccc(C)c3nc21,"inconclusive [inhibitor, partial curve, poor fit]"
16,COc1cccc(-c2ccccc2C2=CC(=O)CC(C)(C)C2=O)c1,"inconclusive [inhibitor, single point]"
17,CCc1ccccc1S(=O)(=O)Cc1ccc(C(=O)NCCc2ccccc2)o1,"inconclusive [inhibitor, single point]"
18,Cc1cc(-c2ccccc2)nc(N/N=C/c2ccccc2F)n1,"inconclusive [inhibitor, single point]"
19,COc1ccc(S(=O)(=O)N2CCCCCC2)cc1C(=O)NCCc1ccc(F)cc1,"inconclusive [inhibitor, partial curve, poor fit]"
20,COc1ccccc1-c1noc(CCC(=O)N2CCN(c3cc(C)ccc3C)CC2)n1,"inconclusive [inhibitor, partial curve, poor fit]"
